Data on 22 molecules can be found in article PMC12136788.

T1: UNK ZnF1-3 (human, UniProt Q9C0B0 31-174)
T1 sequence: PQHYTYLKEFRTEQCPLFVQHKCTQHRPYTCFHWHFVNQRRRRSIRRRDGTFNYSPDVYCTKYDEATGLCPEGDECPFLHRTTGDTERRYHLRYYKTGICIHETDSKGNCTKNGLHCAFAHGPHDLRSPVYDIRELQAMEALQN

B1: chr7:63240916:63240917:-_ENSMUSG00000047037_ENSMUST00000052204|mus_mus|motif|central (ssRNA)
RNA: GGGAGUUCUACAGUCCGACGAUCUAGCAGACAGCCCAACUUGCCCAAGAUGUUGAGCUUUUCCUUCAGAAGGUAAGAAGCGGAAAUGGACCCAAACGGUACUCCAAGGGCACCUAAGGGAGUCACCAGGACUGUAGGGACCGCCAACAGAGGAUUGAGCAUCA
B2: chr3:144353948:144353949:-_ENSMUSG00000037062_ENSMUST00000163279|mus_hu|FALSE|FALSE (ssRNA)
RNA: GGGAGUUCUACAGUCCGACGAUCACCAAACAACUCUGAAAAUAACCCAUCAAAACAUAAUAUUAAAAUCAUUUGAUUUCUGUUGGAAAACCAGGUAAACAUAGUUUAAAUGCGUUUUUGUCUAUGAAAGCAUUCAGAAAAUUCCAACAGAGGAUUGAGCAUCA
B3: chr12:48362563:48362564:+_ENSG00000134291_ENST00000256686|hu_hu|motif|central (ssRNA)
RNA: GGGAGUUCUACAGUCCGACGAUCGAUGAAGGGUGAAUCAAGCCCCACAUAGACUCUUGGUAAAAACAAUUCUAACUUUCGGAAAAAAAAAAAAGCCAACACACUUUUUUCUUUCUUUUCAAAAAGCUCCCAGGCCUUUGGGAACAACAGAGGAUUGAGCAUCA
B4: chr11:69795057:69795058:+_ENSMUSG00000018559_ENSMUST00000108593|mus_hu|FALSE|FALSE (ssRNA)
RNA: GGGAGUUCUACAGUCCGACGAUCAUAUCGAACAGUUUGGUACUGAAUUACCGUGCGGAUCUGCCUCCGCAGAAGGUAAAUGAAGAAGCUCCAGAGCUUGGCGGCGAAGGCCACGAACGUGCGCAGCCCCAGCAGACACUGCGUCAACAGAGGAUUGAGCAUCA
B5: chr4:57314706:57314707:+_ENSG00000128050_ENST00000264221|hu_mus|hu_hu_hu_mus_True|58_108 (ssRNA)
RNA: GGGAGUUCUACAGUCCGACGAUCCAGUAUUUCAAAUAUAGCUUGUGUGGCAUGACUCAUGAUGUCCACUUCAGUCUGGCCUAUAAGAAGGCCAGCAAAACAGAAUUUUGCAGCAAUGAGUUGCUCCUCAGACCACUGUGGAUCCAACAGAGGAUUGAGCAUCA
B6: chr12:16048344:16048345:+_ENSG00000023734_ENST00000419869|hu_hu|hu_hu_hu_mus_True|68_78 (ssRNA)
RNA: GGGAGUUCUACAGUCCGACGAUCAGAUCGUCCAUAAGUAAUAACCAAAAUCUCUCCCUCAGGAAUAUAUUCCAUACUGCUAACAGACAUAUUAAAAUUCAGAGAUUUCACUUCUGUCAUUGUGGCAUGAUCCCAGAGCCGAACCAACAGAGGAUUGAGCAUCA
B7: 44612319_44612584_207_CDS_ENSG00000136271_ENST00000433257|human|control|control (ssRNA)
RNA: GGGAGUUCUACAGUCCGACGAUCUCUGGCUUCUCCAUCAGCACAGCUCUCUGAGAGACUGAGUCUUCAGCAGCUGAGACAUUGGCCACUCGGACAUCCCGAGCACAGUAGGUAGCCAGCUGCUGAAUCAUGGACUGUGCUUGCCAACAGAGGAUUGAGCAUCA
B8: chr14:22137345:22137346:+_ENSMUSG00000039197_ENSMUST00000045376|mus_hu|FALSE|FALSE (ssRNA)
RNA: GGGAGUUCUACAGUCCGACGAUCAAAAAGUAUAUCAACAUAAGGCAUAACUUUCAUCAAUGAUUCCUUGUAGAACUGGCUAAUAAACGGUGCAGAUAGAUUCAAAGUGAAAAUCCUGUUGUUUUCAGAAGCAUGGUGAGCCACCAACAGAGGAUUGAGCAUCA
B9: chr11:72025555:72025556:-_ENSMUSG00000020801_ENSMUST00000021157|mus_hu|motif|central (ssRNA)
RNA: GGGAGUUCUACAGUCCGACGAUCUCGCACACUGAGCAUUCACCAGCUCCUUUCGGAAGUGUUCAUAUUGGAGCAGCUCGGACAUGUGUAAACACUGAGGGUACUUUAGAUACUUGGCAUAUUCUGGGUCUUUCCAGUAAAGCACAACAGAGGAUUGAGCAUCA
B10: chr7:63240916:63240917:-_ENSMUSG00000047037_ENSMUST00000052204|mus_hu|motif|central (ssRNA)
RNA: GGGAGUUCUACAGUCCGACGAUCUAGCAGGCACCCCAACUUGCCCAAGAUGUUGAGCUUUUCCUUCAGGAGAUAGGAAGCGGAAAUGGACCCGAACGGUACUCCAAGGGCGCCCAGGGGGGUUACCAGGACCGUGGGGACCGCCAACAGAGGAUUGAGCAUCA
B11: chr6:136509389:136509390:+_ENSMUSG00000030213_ENSMUST00000032335|mus_hu|motif|central (ssRNA)
RNA: GGGAGUUCUACAGUCCGACGAUCAAUAUUAUUAUCAGCUUUAUUUUUCUCAUCCAAUGAGUCUUUACUCUGAAUUUGCUCGGAUUUUUCAUCAGCUCCAUUUUUUUCAAGAAAAUCAUCAUCUUUAUUGCUACUUGGUUCUAUCAACAGAGGAUUGAGCAUCA
B12: chr17:62496016:62496017:-_ENSG00000108654_ENST00000581693|hu_hu|motif|central (ssRNA)
RNA: GGGAGUUCUACAGUCCGACGAUCCAGAUAACACACAAUAUAAAGAGCAAUUAUGAAAAACAGACAUUUACAUAUACUUCGGAAGUCUUAUUGGGAAUAUCCUGUUGGCAUUGGAUAACCAAUCAUAGGUGCAGCUGCAGUAGCCAACAGAGGAUUGAGCAUCA
B13: chr6:64423786:64423787:+_ENSG00000118482_ENST00000393387|hu_hu|motif|central (ssRNA)
RNA: GGGAGUUCUACAGUCCGACGAUCAACAAAUCUUUGAAUAUACAGCAAUGUAAAACUUUUAAAAAUAUUAAAUUCCGGUAACGGGGGACCGUUGGUAUGAAGAAGGGAUGAUGAGCACUGGUACAGAGCACUCUGUACCAACACCAACAGAGGAUUGAGCAUCA
B14: chr12:39752152:39752153:-_ENSG00000139116_ENST00000544797|hu_mus|motif|central (ssRNA)
RNA: GGGAGUUCUACAGUCCGACGAUCGUACUUCAGAGUGUUUAACGUCUCCAUGAAAUCCCUGUCUGAAGGGCUGACGCAUGCGGUCAUGAUGGUUUGGCUGUUACCCCCAAGGGAAUCCUGCAAGAGUCUUGUCAGCUUAGAGUCCAACAGAGGAUUGAGCAUCA
B15: chr12:121861850:121861851:+_ENSG00000170633_ENST00000361234|hu_hu|FALSE|FALSE (ssRNA)
RNA: GGGAGUUCUACAGUCCGACGAUCCAGCAACAAUGUGGAAACUUACAUUCAUCAAAUGUUAGCAUUUAAAAUAUACAUGACUAAUAAAGUGAACAUUCAGAGGAGCCACUGCUCAGCAUGUUCCAUGUCGGCCACUUGUGGACACAACAGAGGAUUGAGCAUCA
B16: chrX:76855959:76855960:-_ENSG00000085224_ENST00000373344|hu_mus|FALSE|FALSE (ssRNA)
RNA: GGGAGUUCUACAGUCCGACGAUCUGAAGCUAUAAAUUCAUCCAUACUAUCUUCAUCAAAAUAACCCUUAUUUUCUUUGCUGAUAUAGUCCAGUUGCAAACACCAAGGAUGAGUCCAGAUUCUACUUAACAUUUGGAAAUCUUGCAACAGAGGAUUGAGCAUCA
B17: chr14:90871172:90871173:+_ENSG00000198668_ENST00000553542|hu_mus|motif|central (ssRNA)
RNA: GGGAGUUCUACAGUCCGACGAUCACCAAUACAUGCAGACUUUGUGUGUGGACAGAGGGGCUUCUGACAUUCAGCUUCGCGGGAUACAAACAGAAUGAAGAAAUGAACUUUUUCUUUUUUUUUCUUUUUUUUGUAAGAGGUAAGCAACAGAGGAUUGAGCAUCA
B18: 46599869_46600981_1274_CDS_ENSG00000111371_ENST00000398637|human|control|control (ssRNA)
RNA: GGGAGUUCUACAGUCCGACGAUCCUUCAAGAGACACAGAGGGAGAAUUAUGCCAAAGGUAACUAUCACCACCAGAACGCGGCCAUCCACGUACCAGGCUGAAAAUGUCUCUUCCUUUCCCAUUAGAAACUUUAUGGCAGAGGGCAACAGAGGAUUGAGCAUCA
B19: chr13:94999761:94999762:-_ENSMUSG00000021687_ENSMUST00000022197|perfect_dup|motif|central (ssRNA)
RNA: GGGAGUUCUACAGUCCGACGAUCUUCUACAGGAAUGUCUACAGAAAAAUCCUGAUAGAAACAAGGUCCGACAGGAAAAUUGCGGGGAAGAGGUGGCCAAUUAUUUUUUCUACCAUGUUGACUGAGGUUUUGCAUUUCUCGUUCCAACAGAGGAUUGAGCAUCA
B20: chr4:42003652:42003653:+_ENSG00000014824_ENST00000513699|hu_mus|FALSE|FALSE (ssRNA)
RNA: GGGAGUUCUACAGUCCGACGAUCAAUAGAUAAAUGUGGGUGAAUGUCGGGAACCACAUAUGUAAAGCUUUCAAAUGUCAUUACAUUCUUCCAUCCCUGGCUGCGGCCGCGGGUCGCUGCCCGGCCGCCACCGAGCCUGCACAGCAACAGAGGAUUGAGCAUCA
B21: chr8:96751671:96751672:+_ENSMUSG00000032939_ENSMUST00000079961|mus_hu|FALSE|FALSE (ssRNA)
RNA: GGGAGUUCUACAGUCCGACGAUCCGUGCGUGUUAGGGUACGGGAACGCAGGCGCUCUCCCGCCUGCUGGAUCUCCUGUAAGUUCCGUUCCACAUGGGGAAGCUCUGAGAUGCCCUCAGUCUCAGCAGCAAGCUGUUCAGCUUGCAACAGAGGAUUGAGCAUCA
B22: chr14:76904430:76904431:+_ENSMUSG00000022010_ENSMUST00000022587|mus_mus|mus_mus_mus_hu_True|1_78 (ssRNA)
RNA: GGGAGUUCUACAGUCCGACGAUCUGCAGCCAAAAACACCCUCGUGGAAAAAAAGAGCAAGCUCCAGCAGCCUUGUAUAAGCUAGAUAAAAUCUUCUGGCUUUCCGCAGCCCAGGGAGAAACAGAAAACGGCAGCCCUCGAGUGCAACAGAGGAUUGAGCAUCA

The list shows a part of the results.

The assay addresses T1, UNK ZnF1-3. Put plainly: nsRBNS (natural sequence RNA bind-n-seq); RBNS binding buffer (assumed for nsRBNS): 25 mM Tris pH 7.5, 150 mM KCl, 3 mM MgCl2, 0.01% Triton X-100, 500 ug/ml BSA, 20 U/ml SUPERase-In, 4 C; UNK is unkempt and MSI1 is Musashi-1; names of the RNAs are library labels; protein concentration not given here; high values mean tight binding.
B1 showed a binding signal of 1.1 enrichment R.

On to B2, for which the binding signal worked out at 0.744 enrichment R.

For B3, the binding signal came out at 1.66 enrichment R.

Take B4: the binding signal turned out to be 0.477 enrichment R.

As to B5, the binding signal was 0.863 enrichment R.

B6: the binding signal worked out at 1.22 enrichment R.

Molecule B7 registered a binding signal of 0.34 enrichment R.

Regarding B8, the binding signal turned out to be 1.06 enrichment R.

The molecule B9 returned a binding signal of 0.84 enrichment R.

Consider B10, for which the binding signal came out at 1.24 enrichment R.

B11 registered a binding signal of 0.383 enrichment R.

For the molecule B12, the binding signal is 2.07 enrichment R.

With B13, the binding signal was found to be 2.95 enrichment R.

Consider B14, for which the binding signal was 0.724 enrichment R.

For B15, the binding signal was 1.24 enrichment R.

Take B16: the binding signal came to 0.925 enrichment R.

B17 registered a binding signal of 1.22 enrichment R.

Turning to B18, the binding signal is 1.57 enrichment R.

Turning to B19, the binding signal came out at 1.75 enrichment R.

B20 came in with a binding signal of 0.84 enrichment R.

For B21, the binding signal is 0.54 enrichment R.

For B22, the binding signal is 1.74 enrichment R.
